Experimental data published in PubChem BioAssay AID686971 (National Center for Advancing Translational Sciences (NCATS), 2013).
In all, about 360,000 compounds went through this assay and about 7,500 (2.1%) were called active. Inconclusive results, whose numbers are uncertain, are shown with a selection of clear calls. The call rests on the fitted dose curve; in most records, active means well fitted cell-killing curve with a large enough effect; inconclusive means small, poorly fitted or top-dose-only effect, or effect the other way, or another doubt; inactive means no such curve, though single readings can be large or run the other way. Potencies of inconclusive entries are left out as doubtful fits.
Potency means the concentration at half of the fitted maximal effect; tags describe the fitted curve by direction and shape.

Test: qHTS for induction of synthetic lethality in tumor cells producing 2HG: qHTS for the HT-1080-IDH1KD cell line;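 on activity, negative = toxicity: 0% = DMSO wells and -100% = cell-free medium wells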
Conditions: HT-1080 IDH1 knockdown viability, ATP luminescence, 48 h; activity, negative = toxicity: at 46.1 µM (top of the series) unless noted
Method in brief: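 Cytotoxicity counter-line: IDH1KD HT-1080, 48 h, CellTiter-Glo. Curves classed by r2, magnitude and activity.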
In the case of O=C(COc1ccc2oc3c(c2c1)CCCC3)Nc1ccccn1, the Potency is reported as inconclusive [cytotoxic, single point].
In the case of O=C(COc1ccccc1)NCC(c1ccco1)N1CCN(c2ccccc2F)CC1 (centres undefined), the Potency is reported as inconclusive [cytotoxic, single point].
With CCN(c1ccccc1)S(=O)(=O)c1ccc(C(=O)NCC(=O)Nc2ccc(F)c(F)c2F)cc1 the Potency was inconclusive [cytotoxic, single point].
For CCOC(=O)C1=C(C)N=C2SC(C(=O)OC)=CC(=O)N2C1c1ccc(F)cc1 (centres undefined), the “activity, negative = toxicity” value was inactive: -18%.
With CC(CSc1nc2ccccc2s1)Cn1c(N2CCCC2)nc2c1c(=O)[nH]c(=O)n2C (centres undefined) the Potency was inconclusive [cytotoxic, partial curve].
With CC(=O)N1c2ccc(S(=O)(=O)NCC3CCC(C(=O)Nc4cccc(C)n4)CC3)cc2CC1C (centres undefined) the “activity, negative = toxicity” value was inactive: -11.4%.
With COc1ccc(CC(=O)OCc2cc(=O)n3cc(Br)ccc3n2)cc1OC the Potency was inconclusive [rising, full curve].
In the case of Cc1cccc(OCC(=O)O/N=C(\N)c2ccncc2)c1, the “activity, negative = toxicity” value is reported as inactive: 0.0711%.
With CNC(=O)COc1ccccc1C(=O)Nc1ccc2c(c1)oc1ccccc12 the Potency was inconclusive [cytotoxic, single point].
In the case of Cn1cc(/C=C/C(=O)N2CCCC(C(=O)c3ccc(C(C)(C)C)cc3)C2)cn1 (centres undefined), the “activity, negative = toxicity” value is reported as inactive: 3.33%.
With OC(c1ccc(Cl)c(F)c1)c1ncc(-c2cccc3ccccc23)[nH]1 (centres undefined) the Potency was inconclusive [cytotoxic, single point].
With COc1ccccc1CNCC(O)(c1ccc(Cl)cc1)c1ccc(Cl)cc1 the Potency was active: 11.2 µM.
With COc1ccc(Nc2nc3ccccc3nc2NS(=O)(=O)c2ccc(NC(C)=O)cc2)cc1 the “activity, negative = toxicity” value was inactive: 2.62%.
With O=C1c2ccccc2CN1CCSC(=S)N1CCOCC1 the “activity, negative = toxicity” value was inactive: 7.74%.
With CCCCC1=NN(C(=O)c2ccco2)C(O)(C(F)(F)F)C1 (centres undefined) the Potency was inconclusive [cytotoxic, single point].
For CCOc1cc(/C=N/NC(=O)c2cccc([N+](=O)[O-])c2)ccc1OS(=O)(=O)c1ccccc1, the Potency was inconclusive [cytotoxic, single point].
For COc1ccc(C(=O)COc2ccc3ccc(=O)oc3c2)c(OC)c1, the Potency was inconclusive [cytotoxic, single point].
With CCc1nc2c(OCC(=O)c3ccc(F)cc3)cccn2c1N(C)C(=O)COc1ccccc1 the “activity, negative = toxicity” value was inactive: 1.87%.
In the case of Cc1ccccc1Cn1c(CN2CCc3ccccc3C2)nc2c1c(=O)n(C)c(=O)n2C, the Potency is reported as inconclusive [cytotoxic, single point].
For C[C@@H](CN1C2=NC[C@H](Cc3ccccc3)N2C[C@H]1Cc1ccc(O)cc1)NC(=O)CCC1CCCCC1, the Potency was inconclusive [cytotoxic, partial curve].
With CC(C)C[C@H]1CN([C@@H](CC(C)C)CN2CCCC2CN2C(=S)NC[C@@H]2Cc2ccc(O)cc2)C(=S)N1CCc1ccccc1 (some centres undefined) the Potency was inconclusive [cytotoxic, single point].
For COc1cc2sc(-c3ccccc3OC)c(-c3ccc(O)cc3)c2cc1OC, the Potency was inconclusive [cytotoxic, single point].
In the case of CC(NC(=O)C1CCN(Cc2ccccc2)CC1)c1cccc2ccccc12 (centres undefined), the Potency is reported as inconclusive [cytotoxic, single point].
For COc1ccccc1CNc1nc(NCc2cccs2)nc2ccsc12, the Potency was inconclusive [cytotoxic, single point].
In the case of CCN(CC)CCNC(=O)c1ccc(NC(=O)c2ccc(Cl)c(S(=O)(=O)N3CCCCCC3)c2)cc1, the Potency is reported as active: 20.6 µM.
In the case of CC1CCc2c(sc(NC(=O)COC(=O)c3ccc(O)cc3)c2C#N)C1 (centres undefined), the “activity, negative = toxicity” value is reported as inactive: -3.45%.
With CC[C@]12c3[nH]c4ccccc4c3CCN1C(=O)C(CC(=O)NC/C=C(\C)CCC=C(C)C)C[C@@H]2C(=O)N1CCN(C(=O)c2ccco2)CC1 (some centres undefined) the Potency was inconclusive [cytotoxic, single point].
For COc1ccc(C(C(=O)NC2CCCC2)N(Cc2ccccc2)C(=O)c2nsc(Cl)c2Cl)cc1 (centres undefined), the Potency was inconclusive [cytotoxic, single point].
With CCCCOc1ccc(C(=O)NCC(=O)N2CCN(C(=O)c3ccco3)CC2)cc1 the “activity, negative = toxicity” value was inactive: 0.783%.
For CC1(C(=O)NCc2cccc3ccccc23)CCN1C(=O)C1(c2ccccc2)CCCC1 (centres undefined), the Potency was inconclusive [cytotoxic, single point].
With CN(CC(=O)Nc1ccc2c(c1)OCCO2)S(=O)(=O)c1ccc(Br)s1 the “activity, negative = toxicity” value was inactive: -2.64%.
For CCOc1ccc2c(c1)-c1c(ssc1=S)C(C)(C)N2, the Potency was inconclusive [cytotoxic, single point].
For CCc1nc2c(OCCC3CCCCC3)cccn2c1N(C=O)Cc1ccccc1, the Potency was inconclusive [cytotoxic, single point].
For COc1ccc(C(C)(C)NC(=O)C2CCC(=O)N(C3CC3)C2)cc1OC (centres undefined), the “activity, negative = toxicity” value was inactive: -2.33%.
In the case of Cc1cccc(C(=O)/C=C2/c3ccccc3CC(C)(C)N2C)c1, the Potency is reported as active: 11.2 µM.
In the case of O=C(CNC(=O)c1ccc2c(c1)OCO2)N/N=C/c1cccc([N+](=O)[O-])c1, the “activity, negative = toxicity” value is reported as inactive: 15.5%.
In the case of COc1ccc(C(=O)C(=O)N2CCN(c3ccc(C)cc3)CC2)cc1OC, the “activity, negative = toxicity” value is reported as inactive: 0.398%.
In the case of Cc1ccccc1NC(=O)COC(=O)c1cccc(S(=O)(=O)N2CCCCC2)c1, the “activity, negative = toxicity” value is reported as inactive: -5.73%.
With Cc1ccc(-n2c(C)nc3c(cnn3-c3ccc(F)cc3)c2=O)cc1 the Potency was inconclusive [cytotoxic, single point].
With CC1CCCC(C)N1C(=O)COC(=O)c1ccc(F)c(S(=O)(=O)N2CCOCC2)c1 (centres undefined) the “activity, negative = toxicity” value was inactive: -0.0149%.
In the case of Fc1ccc(-c2c[nH]c(=S)n2Cc2ccccc2)cc1, the “activity, negative = toxicity” value is reported as inactive: 2.9%.
In the case of O=C1C2C(C(=O)N1/N=C/c1ccc([N+](=O)[O-])o1)C1C=CC2C12CC2 (centres undefined), the Potency is reported as inconclusive [cytotoxic, single point].
For Cc1ccc(NC2=C(NCCO)C(=O)c3ccccc3C2=O)cc1, the Potency was inconclusive [cytotoxic, partial curve, poor fit].
In the case of NC(=O)c1cc(Cc2ccccc2)sc1NC(=O)c1ccco1, the Potency is reported as inconclusive [cytotoxic, single point].
In the case of Cc1ccccc1NS(=O)(=O)c1cc(C(=O)Nc2cccc(N(C)S(C)(=O)=O)c2)ccc1C, the Potency is reported as inconclusive [cytotoxic, single point].
For CCNC(=O)c1c(O)c2cccc3c2n(c1=O)CC3, the Potency was inconclusive [cytotoxic, partial curve].
For OC1CCN(C(c2ccc3ncccc3c2)c2nnnn2C2CCCCC2)CC1 (centres undefined), the Potency was inconclusive [cytotoxic, single point].
In the case of O=C(/C=C/c1ccc(Cl)c(Cl)c1)N1CCc2ccccc21, the Potency is reported as inconclusive [rising, partial curve, poor fit].
For CN1CCN(C(=O)c2ccc(COc3ccc(Cl)cc3Cl)cc2)CC1, the Potency was inconclusive [cytotoxic, single point].
With CC(C)Oc1ccc(/C=N/NC(N)=S)cc1 the Potency was active: 14.6 µM.
With CCOc1ccc(C(NC(=O)CC)c2c(O)ccc3ccccc23)cc1 (centres undefined) the Potency was inconclusive [cytotoxic, single point].
For Nc1nc(CCl)nc(N(c2ccccc2)c2ccccc2)n1, the Potency was active: 2.91 µM.
In the case of OC(c1ccc(F)cc1)c1nc(-c2cccc(F)c2)cs1 (centres undefined), the “activity, negative = toxicity” value is reported as inactive: -12.5%.
In the case of O=C(COc1ccccc1F)Nc1ccc(S(=O)(=O)N2CCCC2)cc1, the “activity, negative = toxicity” value is reported as inactive: -0.635%.
With COc1ccc(OC2CCN(S(=O)(=O)c3ccc(OC)c(OC)c3)CC2)cc1 the “activity, negative = toxicity” value was inactive: -14.2%.
For COc1cccc(-c2cc(=O)c3cc(NC(=O)c4ccccc4)ccc3[nH]2)c1, the Potency was active: 3.66 µM.
With CCS(=O)(=O)c1ncc(Cl)c(C(=O)Nc2ccc(S(=O)(=O)N(C)c3ccccc3)cc2)n1 the Potency was active: 3.66 µM.
In the case of Cc1ccc(/C=C/c2onc(C)c2S(=O)(=O)N2CCC(C(=O)N3CCN(C)CC3)CC2)cc1, the Potency is reported as inconclusive [cytotoxic, single point].
For CC(C)NCCCOc1ccc(Cl)cc1Br, the Potency was inconclusive [cytotoxic, partial curve].
With NC(Cc1ccc(C(F)(F)F)cc1)c1csc(Nc2cnccn2)n1 (centres undefined) the Potency was inconclusive [cytotoxic, single point].
In the case of O=C(Cc1ccc(Cl)cc1)Nc1ccc(N2CCN(C(=O)c3ccco3)CC2)cc1, the Potency is reported as inconclusive [cytotoxic, single point].
For CCOC(=O)c1c(C)[nH]c(C(=O)CSc2nnc(-c3cccs3)n2Cc2ccccc2)c1C, the Potency was inconclusive [cytotoxic, single point].
In the case of C/C(=N\NC(=O)COc1ccc(C(C)(C)C)cc1)c1ccc(-n2ccnc2)cc1, the Potency is reported as inconclusive [cytotoxic, single point].
For CCN(CC)Cc1c(O)ccc2c(=O)c(-c3ccccc3)coc12, the “activity, negative = toxicity” value was inactive: -1.39%.
With COc1ccc(N2CCN(c3ccc(C(=O)O)cc3[N+](=O)[O-])CC2)cc1 the “activity, negative = toxicity” value was inactive: -2.8%.
With CC(C)=CCC/C(C)=C/CNC(=O)C[C@H]1C[C@H](C(=O)N(C(C)C)C(C)C)[C@@]2(C)c3[nH]c4cc(CCC(=O)N(C)C)ccc4c3CCN2C1=O the Potency was inconclusive [cytotoxic, single point].
For COc1cccc2c1O/C(=N\O)C(C(=O)Nc1ccc(C)cc1)C2 (centres undefined), the Potency was active: 14.6 µM.
With CCOC(=O)c1cnc2c(Cl)c(Cl)ccc2c1N1CCN(C)CC1 the Potency was active: 16.4 µM.
With CCN1CCN(CCCN(Cc2ccco2)C(=S)Nc2ccc(C)c(Cl)c2)CC1 the Potency was inconclusive [cytotoxic, partial curve].
